Experimental data taken from PubChem BioAssay AID686979 (National Center for Advancing Translational Sciences (NCATS), 2013).
Several values for one entry are separate records, joined by “and”; a condition that tells them apart may be missing. Equal values may be shown once. In all, about 420,000 compounds went through this assay and about 50,000 (12%) were called active. The shares of active, inactive and inconclusive entries below differ from those in the screen. Calls come from the whole dose curve; as a rule, active = well fitted inhibition curve with a large enough effect; inconclusive = small, poorly fitted or top-dose-only effect; inactive = flat fitted curve, though single readings scatter. Where the call is inconclusive, the potency comes from a doubtful curve fit.

test: qHTS for Inhibitors of human tyrosyl-DNA phosphodiesterase 1 (TDP1): qHTS in cells in presence of CPT; conditions: chicken DT40 Tdp1-/-;hTDP1 cells + 20 nM CPT, ATP luminescence, 48 h; activity change, negative = growth inhibition: at 46.2 µM (top of the series); note: nearly all actives have a fitted effect of over 55% in size
Summary of the method: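 Chicken DT40 Tdp1-/- cells complemented with human TDP1, 400 cells/well, exposed to compounds plus 20 nM camptothecin for at least 48 h at 37 C; viability read as ATP content by CellTiter-Glo luminescence.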
% is set by controls: 0 for no effect and ±100 for the full control effect; potency is the fitted concentration of half-maximal effect; tags give direction and shape of the fitted curve.

Structure (SMILES) | Potency | activity change, negative = growth inhibition
Cc1csc(NC(=O)c2cc(-c3ccco3)nc3ccccc23)n1 | inconclusive: 29.1 µM [inhibitor, single point] | –
Cc1cccc(NC(=O)COC(=O)CCc2c[nH]c3ccccc23)c1C | inconclusive: 29.1 µM [inhibitor, single point] | –
C=CCSc1cc(C)nc2c(-c3ccccc3)cnn12 | inconclusive: 29.1 µM [inhibitor, single point] | –
CC1(CCc2ccccc2)NC(=O)N(CC(=O)N2CCc3ccccc32)C1=O (centres undefined) | inconclusive: 20.6 µM [inhibitor, single point] | –
Cc1ccc(-n2nc3c(=O)n(CC(=O)NCCc4ccc(Cl)cc4)nc(C)c3c2C)cc1 | inconclusive: 25.9 µM [inhibitor, single point] | –
COc1ccc(N2CCN(CC(O)COc3ccc(C)c(C)c3)CC2)cc1 (centres undefined) | inconclusive: 14.6 µM [inhibitor, partial curve] and inconclusive: 29.1 µM [inhibitor, single point] | –
Cc1nc(-c2ccc(F)cc2)c(CC(=O)N2CCN(S(=O)(=O)c3cccc([N+](=O)[O-])c3)CC2)s1 | inconclusive: 29.1 µM [inhibitor, single point] | –
CC(=O)N1c2ccc(S(=O)(=O)NCCc3cccc(C)c3)cc2CC1C (centres undefined) | active: 14.6 µM | –
CCOc1ccccc1NC(=O)C(OC(=O)c1ccc(CC)cc1)c1ccccc1 (centres undefined) | active: 16.4 µM | –
CCOc1ccc2oc(=O)cc(CN3CCN(Cc4ccccc4)CC3)c2c1 | inconclusive: 20.6 µM [inhibitor, single point] | –
CCCN(CCC)c1nc(N)nc(C#N)n1 | inconclusive: 35.5 µM [inhibitor, single point] | –
CCOC(=O)c1cccc(NC(=O)N2Cc3ccccc3Oc3ncccc32)c1 | inactive | –
Cn1c(-c2ccc(Br)o2)nc2ccccc21 | active: 11.2 µM | –
CCCCCc1c(C)nc(Nc2ccc(F)cc2)[nH]c1=O | inconclusive: 23.1 µM [inhibitor, single point] | –
COc1ccc(CCNC(=O)CSCc2ccc([N+](=O)[O-])cc2)cc1OC | active: 25.9 µM | –
Cc1ccsc1CN1CCN(c2ccccn2)CC1 | inconclusive: 3.66 µM [inhibitor, full curve] | –
CC(=O)/C(C#N)=C1\NC(=O)C(Cc2ccc(C)c(C)c2)S1 (centres undefined) | active: 0.58 µM | –
Cc1ccc(CN(C)C(=O)c2ccc(S(=O)(=O)N3CCCCCC3)cc2)o1 | inconclusive: 29.1 µM [inhibitor, partial curve, poor fit] | –
CC(C)(C)S(=O)N1Cc2cc(CO)ccc2[C@H]1CCO (some centres undefined) | inactive | –
O=C(c1nc2ccc(Cl)cn2c1CNCC[C@@H]1C[C@@H]2C=C[C@H]1C2)N1CCCCCCC1 | inconclusive: 29.1 µM [inhibitor, single point] | –
COc1ccc(-n2c(=O)c3c4c(sc3n(Cc3ccccc3)c2=O)CCC4)c(OC)c1 | inconclusive: 29.1 µM [inhibitor, single point] | –
CCN(CC(=O)NC1CCS(=O)(=O)C1)C(=O)c1ccc(OC)c([N+](=O)[O-])c1 (centres undefined) | inactive | –
COc1ccc(C(=O)Cn2cnc3ccccc3c2=O)c(OC)c1 | inactive | –

Structure (SMILES) | Potency | activity change, negative = growth inhibition
CCOC(=O)N1CCN(C(=S)NC(=O)c2cccc(OC)c2)CC1 | inactive | –
CCOC(=O)C(=CNc1ccc(N2CCCCC2)c(S(=O)(=O)Nc2ccccc2OC)c1)C(=O)OCC | active: 3.66 µM | –
Cc1cccc(OCC(=O)N/N=C/c2cn[nH]c2-c2ccc(Cl)c(Cl)c2)c1 | inconclusive: 25.9 µM [inhibitor, single point] | –
O=C(COC(=O)c1ccc(-n2cnnn2)cc1)c1ccc(Br)cc1 | inactive | –
S=C(Nc1cccc(Cl)c1)Nc1ccccc1Oc1ccccc1 | inconclusive: 29.1 µM [inhibitor, single point] | –
Cc1ccc(NC(=O)CC2Sc3ccccc3NC2=O)c(C)c1 (centres undefined) | inconclusive: 18.4 µM [inhibitor, single point] | –
CCCCN(CCCC)Cc1ccc(C(=O)NNC(=O)Nc2ccc(F)cc2)o1 | – | inconclusive: -30.3% [inhibitor]
O=C(Nc1ccc2c(c1)OCCO2)C(CCc1ccccc1)N(Cc1ccccc1)Cc1ccccc1 (centres undefined) | inconclusive: 29.1 µM [inhibitor, single point] | –
CN1CCS/C1=C\C=C1/SC(=S)N(CC(=O)O)C1=O | inactive | –
COc1ccc2oc(=O)c(C(=O)Nc3cccc(C)c3)cc2c1 | inconclusive: 10.3 µM [inhibitor, partial curve, poor fit] | –
Cc1ccc(NC(=O)CN2C(=O)NC(C)(C3CC3)C2=O)cc1S(=O)(=O)N1CCCCC1 (centres undefined) | inconclusive: 29.1 µM [inhibitor, single point] | –
O=C(NCc1ccco1)c1cc(-c2ccccc2)c(N2CCOCC2)s1 | inactive | –
Cc1csc(NC(=O)/C=C/c2ccco2)n1 | inconclusive: 10.3 µM [inhibitor, partial curve] | –
Cc1nc(-c2ccc(C(=O)Nc3cccc(F)c3)cc2)cs1 | inactive | –
CC[C@H](C)[C@@H](CN[C@H](CCCCNC)CNC)NCC1CCCC1 | inactive | –
Cc1ccccc1-c1nc(NCc2cccs2)c2ccccc2n1 | inconclusive: 25.9 µM [inhibitor, single point] | –
CC(=O)Nc1ccc(S(=O)(=O)c2ccc([N+](=O)[O-])cc2)cc1 | inconclusive: 14.6 µM [inhibitor, partial curve] | –
Cn1c(NCc2ccccc2O)nc2ccccc21 | inconclusive: 10.3 µM [inhibitor, partial curve] | –
COC(=O)c1ccc(CN2CCC(n3nccc3NC(=O)C3CCCC3)CC2)cc1 | inconclusive: 16.4 µM [inhibitor, partial curve] | –
O=C(Nc1ncccc1O)c1ccc(OCC2CCCO2)cc1 (centres undefined) | inconclusive: 29.1 µM [inhibitor, single point] | –
COC(=O)[C@@H]1CCCN1C(=O)c1c(OC)cc(=O)n2c1CCN(Cc1c(C)[nH]c3ccccc13)CC2 | inconclusive: 29.1 µM [inhibitor, single point] | –
Cc1cccc(CC(C)NC(=O)c2cc(COc3ccc(C)c(C)c3)on2)n1 (centres undefined) | active: 20.6 µM | –
Cc1ccc(CN2CCN(/N=C/C=C/c3ccccc3[N+](=O)[O-])CC2)cc1 | active: 16.4 µM | –

Structure (SMILES) | Potency | activity change, negative = growth inhibition
COC(=O)C1(C(=O)OC)C/C=C\CCN(S(=O)(=O)c2ccccc2[N+](=O)[O-])CC1 | inconclusive: 29.1 µM [inhibitor, single point] | –
CN(C)c1nc(N/N=C/c2ccccc2O)nc(Nc2ccc(F)cc2)n1 | active: 2.31 µM | –
Cc1cc(C)cc(OCCOCCn2c(-c3ccc(Cl)cc3)nc3ccccc3c2=O)c1 | inconclusive: 13 µM [inhibitor, partial curve, poor fit] | –
COc1ccccc1CNC(=O)CSc1nc2c(oc3ccccc32)c(=O)n1CC1CCCO1 (centres undefined) | inconclusive: 16.4 µM [inhibitor, single point] | –
COc1ccc(CNC(=O)C(C)n2nc(C)c3c(C)n(-c4ccc(C)cc4)nc3c2=O)cc1 (centres undefined) | active: 18.4 µM | –
COc1ccc(-c2cc(-n3c(C(F)(F)F)nc4ccccc43)n(CCC#N)n2)cc1 | inconclusive: 29.1 µM [inhibitor, single point] | –
CC(C)NC(=O)C(C)Oc1ccc(S(=O)(=O)NCc2ccc3c(c2)OCO3)cc1 (centres undefined) | inactive | –
Cc1cc(/C=C(\C#N)C(=O)OCC(=O)NC(=O)NC(C)(C)C)c(C)n1CCC(C)C | – | inconclusive: -37% [inhibitor]
C=Cc1ccc(CSc2nc(-c3ccc(Cl)cc3)nc3c2Cc2c(CO)cnc(C)c2O3)cc1 | active: 8.2 µM | –
Cn1c(Cl)c(C(=O)Nc2ccc(Cl)cc2)c2ccccc21 | inconclusive: 18.4 µM [inhibitor, single point] | –
O=C(Nc1ccccc1N1CCCC1)c1ccc(N2CCCC2=O)cc1 | inconclusive: 29.1 µM [inhibitor, single point] | –
COc1ccc(-c2csc3[nH]c(=S)n(-c4ccccc4)c(=O)c23)cc1OC | inconclusive: 29.1 µM [inhibitor, single point] | –
CCOc1ccc(-n2c(-c3ccc(OC)cc3)cc3c2CC(C)(C)CC3=O)cc1 | inconclusive: 29.1 µM [inhibitor, single point] | –
CC1CN(c2ccc([N+](=O)[O-])cc2C#N)CC(C)O1 (centres undefined) | inactive | –
Cc1nc(N)nc(Nc2ccc(C#N)cc2)c1Br | inconclusive: 20.6 µM [inhibitor, partial curve, poor fit] | –
O=C(CC1C(=O)NCCN1Cc1cccc(F)c1F)NC1CCCCCC1 (centres undefined) | inconclusive: 18.4 µM [inhibitor, single point] | –
COc1cccc(C(Nc2ccccc2)c2ccc3ccc(C)nc3c2O)c1 (centres undefined) | active: 5.8 µM | –
Cn1c(C(=O)N2CCN(c3ccc(Cl)cc3)CC2)cc2c(=O)[nH]c3ccccc3c21 | inconclusive: 18.4 µM [inhibitor, single point] | –
COc1cc(C2c3[nH]c4ccccc4c3CCN2Cc2cn(C)nc2C)ccc1F (centres undefined) | inconclusive: 29.1 µM [inhibitor, single point] | –
NC(=O)c1ccccc1OCc1nnc(-c2ccccc2Br)o1 | active: 23.1 µM | –
N#Cc1ccc(CN2CC[C@@]3(CCCN(C(=O)c4ccncc4)C3)C2)cc1 | inactive | –
Cc1ccc(C)c(Cn2cc(CCC(=O)NC3CCCCC3)c3ccccc32)c1 | inconclusive: 29.1 µM [inhibitor, single point] | –
CCN(CC)CCNc1ncnc2c1sc1nc(N3CCOCC3)c3c(c12)CCCC3 | inconclusive: 29.1 µM [inhibitor, single point] | –
